# Results: a collection of fitness landscapes (doi:10.1126/science.1257360)
# The list shows a part of the results.
# B1: PhoQ; a variant is named by its letters at X, in order, P23837 (parent)
# chain: MKKLLRLFFPLSLRVRFLLATAAVVLVLSLAYGMVALIGYSVSFDKTTFRLLRGESNLFYTLAKWENNKLHVELPENIDKQSPTMTLIYDENGQLLWAQRDVPWLMKMIQPDWLKSNGFHEIEADVNDTSLLLSGDHSIQQQLQEVREDDDDAEMTHSVAVNVYPATSRMPKLTIVVVDTIPVELKSSYMVWSWFIYVLSANLLLVIPLLWVAAWWSLRPIEALAKEVRELEEHNRELLNPATTRELTSLVRNLNRLLKSERERYDKYRTTLTDLTHSLKTPLXXLQXXLRSLRSEKMSVSDAEPVMLEQISRISQQIGYYLHRASMRGGTLLSRELHPVAPLLDNLTSALNKVYQRKGVNISLDISPEISFVGEQNDFVEVMGNVLDNACKYCLEFVEISARQTDEHLYIVVEDDGPGIPLSKREVIFDRGQRVDTLRPGQGVGLAVAREITEQYEGKIVAGESMLGGARMEVIFGRQHSAPKDE
# Variants of: B1
# Test: enrichment ratio after two sorts for PhoP signalling (ratio (wild type AVST 3.29)); higher = more functional
# Conditions: with PhoP (E. coli)
row,Variant,enrichment ratio
1,ERLS,≤ 0.25
2,TSHQ,11.8
3,ANAI,30.1
4,YPDA,≤ 0.25
5,SVLL,3.01
6,NMIK,≤ 0.25
7,QVGL,0.705
8,QSEP,≤ 0.25
9,PEMF,≤ 0.25
10,YEES,≤ 0.25
11,DNIQ,≤ 0.25
12,GLDN,≤ 0.25
13,HHGI,≤ 0.25
14,YCWC,≤ 0.25
15,AHPF,≤ 0.25
16,YPQT,≤ 0.25
17,QNPN,≤ 0.25
18,NMKH,≤ 0.25
19,EAAG,≤ 0.25
20,YYQE,≤ 0.25
21,GISY,3.52
22,VDSV,≤ 0.25
23,EGTV,≤ 0.25
24,CHMF,≤ 0.25

row,Variant,enrichment ratio
1,SMEG,≤ 0.25
2,PQTS,0.402
3,TFRE,≤ 0.25
4,YFKQ,≤ 0.25
5,TPIK,≤ 0.25
6,FFFF,≤ 0.25
7,MSET,≤ 0.25
8,KRIA,≤ 0.25
9,FVPG,≤ 0.25
10,IKVC,≤ 0.25
11,FNYF,≤ 0.25
12,HECM,24
13,HHPD,≤ 0.25
14,DARG,≤ 0.25
15,HLVI,≤ 0.25
16,MSWQ,14.5
17,YMFQ,≤ 0.25
18,VQCE,≤ 0.25
19,LDLA,≤ 0.25
20,NFMT,≤ 0.25
21,TITG,8.82
22,IFSD,≤ 0.25
23,RRLE,≤ 0.25
24,LAKM,≤ 0.25

row,Variant,enrichment ratio
1,KENY,≤ 0.25
2,SKIP,≤ 0.25
3,AQPM,≤ 0.25
4,IEQT,≤ 0.25
5,LPEM,≤ 0.25
6,VISN,≤ 0.25
7,TTLA,16.9
8,NYNA,≤ 0.25
9,QSHE,≤ 0.25
10,TQDI,≤ 0.25
11,LRYA,≤ 0.25
12,WNRG,≤ 0.25
13,KDLM,≤ 0.25
14,DWSM,≤ 0.25
15,KVSC,≤ 0.25
16,ITIR,≤ 0.25
17,MVYD,≤ 0.25
18,KHEL,≤ 0.25
19,FMWE,≤ 0.25
20,EHPI,≤ 0.25
21,TVVY,≤ 0.25
22,CSTV,≤ 0.25
23,TAIQ,≤ 0.25
24,NMFA,≤ 0.25

row,Variant,enrichment ratio
1,TVRF,≤ 0.25
2,RGSS,≤ 0.25
3,GDLL,1.77
4,DWSI,≤ 0.25
5,TYSG,7.27
6,YETW,≤ 0.25
7,DRQF,≤ 0.25
8,IPKF,≤ 0.25
9,FISR,≤ 0.25
10,KARS,≤ 0.25
11,DTHQ,≤ 0.25
12,WESF,≤ 0.25
13,MQVY,1.21
14,GWYI,≤ 0.25
15,KGTW,≤ 0.25
16,FCKW,≤ 0.25
17,RMRM,≤ 0.25
18,SESE,24.9
19,WEER,≤ 0.25
20,QPFW,≤ 0.25
21,FQES,≤ 0.25
22,MNDS,≤ 0.25
23,WPAL,≤ 0.25
24,TDHA,≤ 0.25

row,Variant,enrichment ratio
1,HFLE,≤ 0.25
2,MENS,≤ 0.25
3,SQLD,9.99
4,SLAS,5.06
5,PETD,≤ 0.25
6,FKFN,≤ 0.25
7,REWE,≤ 0.25
8,PGED,≤ 0.25
9,YGYC,≤ 0.25
10,TTYM,10.1
11,KAFH,≤ 0.25
12,LHYH,≤ 0.25
13,RSAF,≤ 0.25
14,DIQP,≤ 0.25
15,CNES,≤ 0.25
16,LKLQ,≤ 0.25
17,FTHM,≤ 0.25
18,NAKP,≤ 0.25
19,EDFI,≤ 0.25
20,WMTT,≤ 0.25
21,NMYL,≤ 0.25
22,EEWS,≤ 0.25
23,WYYD,≤ 0.25
24,REWR,≤ 0.25

row,Variant,enrichment ratio
1,PGSN,≤ 0.25
2,VHLK,≤ 0.25
3,WAHP,≤ 0.25
4,ERTT,≤ 0.25
5,IRCN,≤ 0.25
6,YRCK,≤ 0.25
7,TISE,24.4
8,NRLK,≤ 0.25
9,VSAH,≤ 0.25
10,LGMG,≤ 0.25
11,RAGM,≤ 0.25
12,YRYR,≤ 0.25
13,LQGI,≤ 0.25
14,TCIF,≤ 0.25
15,AYWE,≤ 0.25
16,IDWD,≤ 0.25
17,YVFV,≤ 0.25
18,NKEE,≤ 0.25
19,QRST,≤ 0.25
20,TATQ,5.5
21,VQDK,≤ 0.25
22,WCFS,≤ 0.25
23,KPLH,≤ 0.25
24,HHCN,≤ 0.25

row,Variant,enrichment ratio
1,RHYG,≤ 0.25
2,EIKH,≤ 0.25
3,FCAG,≤ 0.25
4,AHRP,≤ 0.25
5,MNIV,≤ 0.25
6,HSCN,≤ 0.25
7,HDMT,≤ 0.25
8,YSDG,≤ 0.25
9,SAQH,≤ 0.25
10,MKDS,≤ 0.25
11,VWWG,≤ 0.25
12,KRNC,≤ 0.25
13,ALKK,≤ 0.25
14,FCHF,≤ 0.25
15,MMTE,≤ 0.25
16,VNHH,≤ 0.25
17,VTVY,≤ 0.25
18,ELAY,≤ 0.25
19,MRWI,≤ 0.25
20,NVDI,≤ 0.25
21,LPKP,≤ 0.25
22,ILEL,≤ 0.25
23,ARLS,≤ 0.25
24,WREL,≤ 0.25

row,Variant,enrichment ratio
1,PDSM,≤ 0.25
2,NFDQ,≤ 0.25
3,LVIG,≤ 0.25
4,QCRG,≤ 0.25
5,HWWQ,≤ 0.25
6,GFRG,≤ 0.25
7,QASK,≤ 0.25
8,PYNS,≤ 0.25
9,HAFG,≤ 0.25
10,MHRF,≤ 0.25
11,ELFY,≤ 0.25
12,WIIV,≤ 0.25
13,HDII,≤ 0.25
14,SGMK,0.508
15,MNHK,≤ 0.25
16,ETKY,≤ 0.25
17,IPCH,≤ 0.25
18,DTKN,≤ 0.25
19,NLHN,≤ 0.25
20,YRTA,≤ 0.25
21,YWWE,≤ 0.25
22,KPWD,≤ 0.25
23,LTWQ,≤ 0.25
24,RGRD,≤ 0.25

row,Variant,enrichment ratio
1,THQT,≤ 0.25
2,PCGT,≤ 0.25
3,NSTY,≤ 0.25
4,ITVK,≤ 0.25
5,QCIG,≤ 0.25
6,PQSH,≤ 0.25
7,KYCG,≤ 0.25
8,VLDK,≤ 0.25
9,FNKA,≤ 0.25
10,YRKK,≤ 0.25
11,AIQH,≤ 0.25
12,PNWA,≤ 0.25
13,LERK,≤ 0.25
14,QTIN,≤ 0.25
15,GIRI,≤ 0.25
16,QMYL,9.47
17,TAWY,6.15
18,QHLS,≤ 0.25
19,ICHV,≤ 0.25
20,IGTR,≤ 0.25
21,STYF,≤ 0.25
22,FFMT,≤ 0.25
23,SGFK,≤ 0.25
24,HTAD,≤ 0.25

row,Variant,enrichment ratio
1,RVGW,≤ 0.25
2,PRRS,≤ 0.25
3,QDSK,≤ 0.25
4,VYCV,≤ 0.25
5,QCTQ,≤ 0.25
6,VSKD,≤ 0.25
7,NKPH,≤ 0.25
8,NERW,≤ 0.25
9,KHRN,≤ 0.25
10,AQSG,7.86
11,NKGK,≤ 0.25
12,KATC,≤ 0.25
13,YAWG,≤ 0.25
14,YMNK,≤ 0.25
15,MAWS,≤ 0.25
16,DNIG,≤ 0.25
17,IQPP,≤ 0.25
18,LQIM,≤ 0.25
19,PNSC,≤ 0.25
20,QHEF,≤ 0.25
21,VQQD,≤ 0.25
22,AEEP,≤ 0.25
23,VFYS,≤ 0.25
24,LHNW,≤ 0.25

row,Variant,enrichment ratio
1,LRIC,≤ 0.25
2,DNKD,≤ 0.25
3,ALMA,≤ 0.25
4,DNKP,≤ 0.25
5,TECD,≤ 0.25
6,SDLI,9.48
7,LPNP,≤ 0.25
8,FHYF,≤ 0.25
9,SSFS,≤ 0.25
10,TPIR,≤ 0.25
11,GPTK,≤ 0.25
12,YHQN,≤ 0.25
13,HWEC,≤ 0.25
14,NSVN,≤ 0.25
15,EHLN,≤ 0.25
16,MEMW,≤ 0.25
17,LIHD,≤ 0.25
18,FKCM,≤ 0.25
19,GQRF,≤ 0.25
20,YGWL,≤ 0.25
21,TGIR,≤ 0.25
22,ADVE,≤ 0.25
23,ADAE,≤ 0.25
24,LHWS,≤ 0.25

row,Variant,enrichment ratio
1,NTQR,≤ 0.25
2,FFFP,≤ 0.25
3,YAYQ,≤ 0.25
4,SCAP,≤ 0.25
5,EVEQ,≤ 0.25
6,EFME,≤ 0.25
7,HQHR,≤ 0.25
8,LMFS,0.321
9,AGAP,≤ 0.25
10,QPEC,≤ 0.25
11,TAKH,≤ 0.25
12,QRKN,≤ 0.25
13,MKGD,≤ 0.25
14,KFRL,≤ 0.25
15,QQND,≤ 0.25
16,PYCW,≤ 0.25
17,LNGV,≤ 0.25
18,WEWA,≤ 0.25
19,MGFN,11.6
20,PCVF,≤ 0.25
21,LTNF,≤ 0.25
22,LPWM,≤ 0.25
23,RSYQ,≤ 0.25
24,PNSV,≤ 0.25

row,Variant,enrichment ratio
1,KSMH,≤ 0.25
2,THVG,≤ 0.25
3,PYWY,≤ 0.25
4,WAGM,≤ 0.25
5,EFLT,≤ 0.25
6,PKIE,≤ 0.25
7,DENL,≤ 0.25
8,VIEH,≤ 0.25
9,TWVT,≤ 0.25
10,IYLT,≤ 0.25
11,IAHV,≤ 0.25
12,HNQG,≤ 0.25
13,TRCL,7.14
14,RHGM,≤ 0.25
15,NVCM,≤ 0.25
16,RPYI,≤ 0.25
17,NHYY,≤ 0.25
18,AKIC,≤ 0.25
